The values below come from PubChem BioAssay AID463173 (ICCB-Longwood Screening Facility, Harvard Medical School, 2010).

About 1,700 (3.3%) of roughly 52,000 compounds were called active. Rule as the data show it: active = survival mostly below about 52% (no sharp cut-off); inactive = mostly above about 56%. Some of the results follow.

In this assay the test system is Wild type. The assay is described as follows: growth inhibition of S. aureus wild type versus tarO mutant, primary screen, teichoic acid synthesis inhibitors, RN4220, OD600 (AID 463173). Conditions: S. aureus RN4220 wild type/DeltatarO growth, OD600, 18 h, active compounds read low, screened at 18.75 µg/mL (by protocol).
Consider `CCC(CC)C(=O)NCc1nc2cccnc2n1Cc1ccc(F)cc1`, for which the survival was inactive: 87%.

As for `CCCN(CCC)C(=O)c1cn(CC)c2ccc(S(=O)(=O)N3CCCCC3)cc2c1=O`, the survival is inactive: 133%.

In the case of `COC(=O)C1CC23C=CNC4CCC5(c6ccccc6NC15C2C)C43` (stereo not given), the survival is inactive: 112%.

As to `CCc1ccc(NC(=O)CSc2nc3c(sc4ccccc43)c(=O)n2CCN(CC)CC)cc1`, the survival is inactive: 73%.

Take `Cc1ccc(CNS(=O)(=O)c2cc3c(cc2C)N(C)CCO3)cc1`: the survival is inactive: 78%.

As for `Cc1cn2c(=O)cc(COC(=O)c3ccccc3F)nc2s1`, the survival was inactive: 63%.

Turning to `O=C(CN1C(=O)C2(SCC(=O)N2c2ccccc2)c2ccccc21)NCCc1ccccc1` (stereo not given), the survival is inactive: 136%.

On to `Cc1ccc(C(=O)Nc2ccccc2C(=O)OCc2cc(=O)n3nc(C4CC4)sc3n2)cc1`, for which the survival is inactive: 87%.

For `COc1cc(C)ccc1OCCSc1nc2ccc(NC(=O)c3cccs3)cc2s1`, the survival is inactive: 83%.

As for `Cc1cc(C)cc(NC(=O)CCCc2nnc3n(CC(C)C)c(=O)c4sccc4n23)c1`, the survival was inactive: 97%.

Consider `Cc1ccc(NC(=O)c2ccc3c(c2)NC(=O)c2ccccc2S3)cc1`, for which the survival was inactive: 89%.

For the compound `CCOC(=O)c1cc(C(C)(C)C)oc1CN`, the survival is inactive: 95%.

As to `CC(=O)Nc1cccc(NC(=O)CSc2nccn2Cc2ccco2)c1`, the survival is inactive: 75%.

Take `Cc1ccc(S(=O)(=O)C(CNC(=O)COc2ccc(Cl)cc2)c2ccco2)cc1` (stereo not given): the survival is inactive: 120%.

Consider `CCOc1ccc(-c2nnc(SCC(=O)c3ccc(F)cc3)n2-c2ccccc2)cc1`, for which the survival is inactive: 153%.

Turning to `Cc1ccc(Cn2ccnc2SCC(=O)Nc2ccc3c(c2)OCCO3)cc1`, the survival was inactive: 83%.

Turning to `COc1ccc(/C=C/C(=O)Nc2ccc(Cl)cc2Cl)cc1`, the survival is inactive: 82%.

For the compound `CCN(CC)CCCNC(=O)C(=O)Nc1ccc2nc3n(c(=O)c2c1)CCCCC3`, the survival is inactive: 86%.

For the compound `O=C(Nc1cccc(Cl)c1)c1cc(S(=O)(=O)N2CCCc3ccccc32)ccc1F`, the survival is inactive: 120%.

Regarding `CCOc1cc(C2CC(=O)Nc3c2c(=O)nc(SCc2cccc(Cl)c2)n3C)ccc1O` (stereo not given), the survival was inactive: 85%.

Turning to `Cc1ccccc1CNC(=O)c1cc2cccc3c2n1CC(C)S3` (stereo not given), the survival is inactive: 73%.

With `COCCNC(=O)N1c2ccccc2Sc2ccccc21`, the survival is inactive: 112%.

For the compound `COc1ccc(-c2cc(C(=O)Nc3sc4c(c3C(N)=O)CCC(C)C4)no2)cc1` (stereo not given), the survival is inactive: 135%.

Turning to `CCOC(=O)c1[nH]cnc1C(=O)NC1CCCCC1`, the survival is inactive: 110%.

With `Cc1c(NC(=O)Nc2ccc(Cl)c(C(F)(F)F)c2)c(=O)n(-c2ccccc2)n1C`, the survival is inactive: 136%.

As for `Fc1ccccc1N1CCN(c2ncnc3onc(-c4cccc(Cl)c4)c23)CC1`, the survival is inactive: 79%.

For `CCOc1ccc(OCC)c(-n2cnnn2)c1`, the survival was inactive: 87%.

In the case of `COc1cccc(OCc2cc(=O)n3cc(C)sc3n2)c1`, the survival is inactive: 55%.

Turning to `CC(=O)Nc1ccc(NC(=O)c2nc(SCc3ccccc3C)ncc2Cl)cc1`, the survival is inactive: 79%.

As to `Cc1cccn2c(=O)cc(COc3ccc(NC(=O)C(C)Oc4ccccc4)cc3)nc12` (stereo not given), the survival is inactive: 78%.

As to `NS(=O)(=O)c1ccc(NC(=O)CN2CCN(c3ccc(F)cc3)CC2)cc1`, the survival is inactive: 67%.

Regarding `Cn1c(=O)c2c(-c3ccccc3Br)n(Cc3ccccc3)cc2n(C)c1=O`, the survival was inactive: 82%.

Turning to `CCCCNC(=O)c1cc(-c2ccc(Cl)c(Cl)c2)on1`, the survival was inactive: 76%.

Turning to `Cc1ccc(Cl)cc1-n1ncc2c(NCCC3=CCCCC3)ncnc21`, the survival is inactive: 119%.

Consider `COc1ccc(-n2c(SCC(=O)NC3CCCCC3)nc3c([nH]c4ccccc43)c2=O)cc1`, for which the survival was inactive: 32%.

In the case of `COc1ccc(-c2cc3c(=O)n(CC(=O)Nc4cc(C)ccc4C)ccn3n2)cc1`, the survival was inactive: 69%.

Take `Cc1ccc(S(=O)(=O)n2nc(C)c(S(=O)(=O)N3CCCCC3)c2C)cc1`: the survival was inactive: 82%.

For `CCc1ccc(CN(Cc2ccco2)C(=O)c2ccc(C)cc2)cc1`, the survival is inactive: 56%.

Consider `CSc1ccc(/C=C/c2nc3ccccc3n2S(=O)(=O)c2ccc(F)c(C)c2)cc1`, for which the survival was inactive: 77%.

As for `CCOc1ccc(NC(=O)CCc2c(C)nc3c(c(C)nn3-c3ccccc3)c2C)cc1`, the survival was inactive: 65%.

With `Cc1nnc(NC(=O)CC2CC3CCC2C3)s1` (stereo not given), the survival is inactive: 98%.

On to `CCOc1ccc(NC(=O)CC2C(=O)N(c3cccc(C)c3)C(=O)N2CCC2=CCCCC2)cc1` (stereo not given), for which the survival is inactive: 131%.

`O=C(Nc1ccccc1)N(Cc1cccs1)c1ccc(Cl)cc1`: the survival is inactive: 108%.

`Cc1ccc(-n2c(=O)[nH]c3sc4c(c3c2=O)CCCC4)cc1`: the survival was inactive: 126%.

Consider `O=S(=O)(c1ccc(Cl)cc1)c1nnn2c1nc(NCc1ccccc1)c1sccc12`, for which the survival was inactive: 85%.

On to `CC(=O)N(Cc1cccnc1)c1nc2cc(C)cc(C)c2s1`, for which the survival was inactive: 76%.

Regarding `CC(=O)Nc1ccccc1-c1nc2ccccc2n(C(C)C(=O)Nc2cccc(C)c2C)c1=O` (stereo not given), the survival is inactive: 112%.

Consider `CCc1ccc(C(=O)c2cn(CC(=O)Nc3cccc(C)c3C)c3nc(C)ccc3c2=O)cc1`, for which the survival was inactive: 140%.

Regarding `COc1cc(OC)c(NC(=O)CN(C)S(=O)(=O)c2ccc3c(c2)CCCC(=O)N3)cc1Cl`, the survival was active: 1%.

For `COc1ccc(Cl)cc1NC(=O)CN1C(=O)CSc2ccc(S(=O)(=O)N3CCCC3)cc21`, the survival is inactive: 105%.

On to `COc1ccccc1C(=O)N(Cc1ccco1)Cc1ccccc1F`, for which the survival was inactive: 85%.

Turning to `Cc1cc(NC(=O)c2ccco2)cc(-c2nc3cc(Cl)ccc3o2)c1O`, the survival was inactive: 101%.

For `CCCCN(CC)C(=O)C1CCC(CNS(=O)(=O)c2cccc3nsnc23)CC1` (stereo not given), the survival was inactive: 97%.

For `CCC(C(=O)N(C)Cc1ccccc1)n1nc(C)c2sc3ccccc3c2c1=O` (stereo not given), the survival was inactive: 80%.

Turning to `Cc1cccc(NC(=O)CSc2nc(C)c(Cc3ccccc3)c(=O)[nH]2)c1C`, the survival was inactive: 84%.

For the compound `Cc1ccc(CNC(=O)c2cc(Sc3ccc(F)cc3F)nc3ccccc23)cc1`, the survival was inactive: 94%.

For the compound `COc1ccc(CNC(=O)CCc2c(C)nn(-c3ccc(N4CCOCC4)nn3)c2C)cc1`, the survival was inactive: 124%.

Regarding `CN(C)C(=O)CSc1nnc(-c2ccncc2)n1C`, the survival was inactive: 110%.

As to `COc1ccc(CCNC(=O)C2=C(C)C(=O)OC23CCCCC3)c(OC)c1`, the survival was inactive: 83%.

Take `CCOC(=O)c1ccc(CN(Cc2ccc(F)cc2)S(=O)(=O)c2cc(C(=O)Nc3ccccc3CC)ccc2F)cc1`: the survival is inactive: 131%.

Take `CC(=O)N1CCCC1c1nc2ccccc2n1Cc1cc(C)ccc1C` (stereo not given): the survival is inactive: 110%.

In the case of `CCOC(=O)N1CCN(S(=O)(=O)N2CCCC(C(=O)NCc3ccccc3OC)C2)CC1` (stereo not given), the survival was inactive: 55%.

With `Cc1ccc2ccc3cc(C(=O)Nc4ccc(C)c(F)c4)nc3c2[nH]1`, the survival was inactive: 78%.

Regarding `COc1ccc(NC(=O)C2CCCN(S(=O)(=O)c3ccc4[nH]c(=O)ccc4c3)C2)cc1OC` (stereo not given), the survival is inactive: 91%.

On to `CCOc1cc(CNCCSc2nnnn2C)cc(Cl)c1OCc1ccc(Cl)cc1`, for which the survival is active: -2%.

As for `Cn1c(=O)n(C)c2cc(N3CCOCC3)c(NS(=O)(=O)c3ccc(Br)cc3)cc21`, the survival is inactive: 82%.

On to `Cc1cccc(N2CCN(C(=O)CCCn3ncn4c(cc5occc54)c3=O)CC2)c1C`, for which the survival is inactive: 77%.

Turning to `COc1ccc(-c2cc(C(=O)NCCc3ccccc3)c3c(-c4ccccc4)[nH]nc3n2)cc1`, the survival is inactive: 68%.

Regarding `O=C(Cc1ccc(F)cc1)Nc1cccc(-c2nc3cccnc3s2)c1`, the survival was inactive: 88%.

As for `O=C(NCC(c1cccnc1)N1CCc2ccccc2C1)C(=O)Nc1cccc(Cl)c1` (stereo not given), the survival is inactive: 47%.

On to `CCC1SC(=NC(=O)c2cccs2)NC1=O` (stereo not given), for which the survival was inactive: 110%.

On to `Cc1ccc(CCNS(=O)(=O)c2ccc3c(c2)CCN3C(=O)CCC(=O)O)cc1`, for which the survival was inactive: 133%.

As for `CCc1ccc(NC(=O)CCc2c(C)n(C)c3cc(-c4ccccc4C)nn3c2=O)cc1`, the survival was inactive: 47%.

Regarding `Cc1ccccc1C(=O)N1CCCCC1CCN1CCCCC1` (stereo not given), the survival was inactive: 86%.

As to `COc1ccc(N2CCN(C(=O)CCc3c(C)nc4cc(-c5cccc(F)c5)nn4c3C)CC2)cc1`, the survival was inactive: 71%.

Regarding `CC(=O)N1CCc2c(sc3c2c(=O)n(-c2ccccc2)c(=O)n3Cc2cccc(C(F)(F)F)c2)C1`, the survival is inactive: 137%.

`Cc1ccc(/C=C/c2nc3ccccc3n2S(=O)(=O)c2ccc(Br)cc2)cc1`: the survival is inactive: 70%.

For the compound `O=C(CSc1nnc(-c2ccco2)o1)NC(c1ccccc1)c1ccccc1`, the survival is inactive: 111%.

Take `O=C(NC1CCCCC1)N1CCN(c2ccccn2)CC1`: the survival was inactive: 112%.

`CCOC(=O)c1cnc2c(ccc3ccccc32)c1Nc1ccc(OC)cc1OC`: the survival is active: 6%.

`COc1cccc(N=C2SC(C(=O)Nc3cccc(Cl)c3)CC(=O)N2C)c1` (stereo not given): the survival was inactive: 66%.

`COc1ccc(C(=O)c2c(N)c(-c3nc(-c4ccccc4)cs3)c3ccccn23)cc1`: the survival is inactive: 71%.

Turning to `CCc1nn(CC(=O)NCCCN2CCN(C)CC2)c(=O)c2cc3occc3n12`, the survival was inactive: 125%.

In the case of `CSc1ncc(C(=O)N2CCN(c3ccc(Cl)cc3)CC2)c(C)n1`, the survival is inactive: 124%.

In the case of `COc1ccc(C)cc1NC(=O)c1oc2ccc(S(=O)(=O)N3CCOCC3)cc2c1C`, the survival was inactive: 97%.

For the compound `COC(=O)c1c(NC(=O)COc2ccc(Cl)cc2C)sc2c1CCCCC2`, the survival was inactive: 83%.

As for `COc1ccc(OC)c(NC(=O)CSC2=Nc3ccccc3C3=NC(CCC(=O)NC4CCCCC4)C(=O)N23)c1` (stereo not given), the survival was inactive: 60%.

With `CSc1cccc(NC(=O)CC(c2ccc(F)cc2)N2Cc3ccccc3C2=O)c1` (stereo not given), the survival is inactive: 69%.

On to `Cc1nc2nc(C)c(CCC(=O)NCc3cccc(Cl)c3)c(C)n2n1`, for which the survival is inactive: 75%.

With `O=C(Cn1c(=O)n(Cc2ccco2)c(=O)c2sc3ccccc3c21)Nc1ccccc1C(F)(F)F`, the survival was inactive: 78%.
